This note sets out measurements from article PMC9911399, “Two distinct binding modes provide the RNA-binding protein RbFox with extraordinary sequence specificity”.

First the molecules themselves.
T1: RBFOX1 RRM RbFoxmut (Fox-RRM*) (Homo sapiens, UniProt Q9NWB1 109-208, R118D;E147R;N151S;E152T)
T1 sequence: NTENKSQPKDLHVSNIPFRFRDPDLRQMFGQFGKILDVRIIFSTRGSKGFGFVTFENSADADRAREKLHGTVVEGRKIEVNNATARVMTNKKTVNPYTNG

B1: CUGGUCA (DNA:RNA)
RNA: GGGAGACCGGAAUUCAGAUUGUCCCUGGUCAUUAAAUCCCGUCGUAGCCACCA
DNA 1: CAATCTGAATTCCGGTCTCCC
DNA 2: TGGTGGCTACGACGGGATT
B2: CUCAAAC (DNA:RNA)
RNA: B1 RNA with G27C, G28A, U29A, C30A, A31C
DNA 1: CAATCTGAATTCCGGTCTCCC
DNA 2: TGGTGGCTACGACGGGATT
B3: AUGCGUA (DNA:RNA)
RNA: B1 RNA with C25A, G28C, U29G, C30U
DNA 1: CAATCTGAATTCCGGTCTCCC
DNA 2: TGGTGGCTACGACGGGATT
B4: AAGUGCU (DNA:RNA)
RNA: B1 RNA with C25A, U26A, G28U, U29G, A31U
DNA 1: CAATCTGAATTCCGGTCTCCC
DNA 2: TGGTGGCTACGACGGGATT
B5: GGUUUCG (DNA:RNA)
RNA: B1 RNA with C25G, U26G, G27U, G28U, A31G
DNA 1: CAATCTGAATTCCGGTCTCCC
DNA 2: TGGTGGCTACGACGGGATT
B6: GUUAUUC (DNA:RNA)
RNA: B1 RNA with C25G, G27U, G28A, C30U, A31C
DNA 1: CAATCTGAATTCCGGTCTCCC
DNA 2: TGGTGGCTACGACGGGATT
B7: GUUGUCG (DNA:RNA)
RNA: B1 RNA with C25G, G27U, A31G
DNA 1: CAATCTGAATTCCGGTCTCCC
DNA 2: TGGTGGCTACGACGGGATT
B8: UUAGUCA (DNA:RNA)
RNA: B1 RNA with C25U, G27A
DNA 1: CAATCTGAATTCCGGTCTCCC
DNA 2: TGGTGGCTACGACGGGATT
B9: CACCCUC (DNA:RNA)
RNA: B1 RNA with U26A, G27C, G28C, U29C, C30U, A31C
DNA 1: CAATCTGAATTCCGGTCTCCC
DNA 2: TGGTGGCTACGACGGGATT
B10: CACGUCU (DNA:RNA)
RNA: B1 RNA with U26A, G27C, A31U
DNA 1: CAATCTGAATTCCGGTCTCCC
DNA 2: TGGTGGCTACGACGGGATT
B11: UGCGAUC (DNA:RNA)
RNA: B1 RNA with C25U, U26G, G27C, U29A, C30U, A31C
DNA 1: CAATCTGAATTCCGGTCTCCC
DNA 2: TGGTGGCTACGACGGGATT
B12: GCGGCUC (DNA:RNA)
RNA: B1 RNA with C25G, U26C, U29C, C30U, A31C
DNA 1: CAATCTGAATTCCGGTCTCCC
DNA 2: TGGTGGCTACGACGGGATT
B13: AGUGGAU (DNA:RNA)
RNA: B1 RNA with C25A, U26G, G27U, U29G, C30A, A31U
DNA 1: CAATCTGAATTCCGGTCTCCC
DNA 2: TGGTGGCTACGACGGGATT
B14: ACAUGUU (DNA:RNA)
RNA: GGGAGACCGGAAUUCAGAUUGUCCACAUGUUUUAAAUCCCGUCGUAGCCACCA
DNA 1: CAATCTGAATTCCGGTCTCCC
DNA 2: TGGTGGCTACGACGGGATT
B15: AACCGGA (DNA:RNA)
RNA: B14 RNA with C26A, A27C, U28C, U30G, U31A
DNA 1: CAATCTGAATTCCGGTCTCCC
DNA 2: TGGTGGCTACGACGGGATT
B16: GGCUGAU (DNA:RNA)
RNA: B14 RNA with A25G, C26G, A27C, U30A
DNA 1: CAATCTGAATTCCGGTCTCCC
DNA 2: TGGTGGCTACGACGGGATT
B17: UAAACAC (DNA:RNA)
RNA: B14 RNA with A25U, C26A, U28A, G29C, U30A, U31C
DNA 1: CAATCTGAATTCCGGTCTCCC
DNA 2: TGGTGGCTACGACGGGATT
B18: AUCUGUC (DNA:RNA)
RNA: B14 RNA with C26U, A27C, U31C
DNA 1: CAATCTGAATTCCGGTCTCCC
DNA 2: TGGTGGCTACGACGGGATT
B19: CCAAUCG (DNA:RNA)
RNA: B1 RNA with U26C, G27A, G28A, A31G
DNA 1: CAATCTGAATTCCGGTCTCCC
DNA 2: TGGTGGCTACGACGGGATT
B20: UUACGGU (DNA:RNA)
RNA: B14 RNA with A25U, C26U, U28C, U30G
DNA 1: CAATCTGAATTCCGGTCTCCC
DNA 2: TGGTGGCTACGACGGGATT
B21: UGAUCGG (DNA:RNA)
RNA: B14 RNA with A25U, C26G, G29C, U30G, U31G
DNA 1: CAATCTGAATTCCGGTCTCCC
DNA 2: TGGTGGCTACGACGGGATT
B22: GCGUAGA (DNA:RNA)
RNA: B14 RNA with A25G, A27G, G29A, U30G, U31A
DNA 1: CAATCTGAATTCCGGTCTCCC
DNA 2: TGGTGGCTACGACGGGATT
B23: UGUUAUC (DNA:RNA)
RNA: B14 RNA with A25U, C26G, A27U, G29A, U31C
DNA 1: CAATCTGAATTCCGGTCTCCC
DNA 2: TGGTGGCTACGACGGGATT
B24: UCAGUAC (DNA:RNA)
RNA: B14 RNA with A25U, U28G, G29U, U30A, U31C
DNA 1: CAATCTGAATTCCGGTCTCCC
DNA 2: TGGTGGCTACGACGGGATT
B25: CAGAAAG (DNA:RNA)
RNA: B1 RNA with U26A, G28A, U29A, C30A, A31G
DNA 1: CAATCTGAATTCCGGTCTCCC
DNA 2: TGGTGGCTACGACGGGATT
B26: GCAGUGU (DNA:RNA)
RNA: B14 RNA with A25G, U28G, G29U, U30G
DNA 1: CAATCTGAATTCCGGTCTCCC
DNA 2: TGGTGGCTACGACGGGATT
B27: UUGCCCA (DNA:RNA)
RNA: B1 RNA with C25U, G28C, U29C
DNA 1: CAATCTGAATTCCGGTCTCCC
DNA 2: TGGTGGCTACGACGGGATT
B28: GCUUUUU (DNA:RNA)
RNA: B14 RNA with A25G, A27U, G29U
DNA 1: CAATCTGAATTCCGGTCTCCC
DNA 2: TGGTGGCTACGACGGGATT
B29: ACUGGGU (DNA:RNA)
RNA: B14 RNA with A27U, U28G, U30G
DNA 1: CAATCTGAATTCCGGTCTCCC
DNA 2: TGGTGGCTACGACGGGATT
B30: GCUAUAC (DNA:RNA)
RNA: B14 RNA with A25G, A27U, U28A, G29U, U30A, U31C
DNA 1: CAATCTGAATTCCGGTCTCCC
DNA 2: TGGTGGCTACGACGGGATT
B31: GUCCCCU (DNA:RNA)
RNA: B1 RNA with C25G, G27C, G28C, U29C, A31U
DNA 1: CAATCTGAATTCCGGTCTCCC
DNA 2: TGGTGGCTACGACGGGATT

Numbering of substitutions follows the chain as printed; changes in the protein carry UniProt numbers. Some of the results follow.

The target of this test is T1, RBFOX1 RRM RbFoxmut (Fox-RRM*). As to the kind of experiment: EMSA; HiTS-Eq, 1 nM pool, 10 min; buffer printed only for the single-RNA assays: 10 mM Tris pH 7.5, 150 mM NaCl, 3.4 mM EDTA, 0.001% NP-40, 30 C. To be noted: tags: His6 N-terminal (pET28a); label: 5' 32P. The method in brief:
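Purified RbFox RRM (wild type or mutant) was equilibrated for 10 min in 50 µL with 1 nM of a 5′-radiolabelled pool of RNA with 7 randomized nucleotides, its flanks annealed to DNA oligonucleotides, across increasing protein concentrations. Free RNA was separated by 8% native PAGE, excised, reverse-transcribed, PCR-barcoded and sequenced on an Illumina HiSeq 2500. Relative association constants came from read-count changes of each variant against the control reaction, normalised to the cognate motif.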
With B1, the binding signal is 0.102 KA relative to UGCAUGU. Regarding B2, the binding signal was 0.0681 KA relative to UGCAUGU. Next, B3: 0.231 KA relative to UGCAUGU; B4: 0.106 KA relative to UGCAUGU. As for B5, the binding signal is 0.219 KA relative to UGCAUGU. As for B6, the binding signal is 0.0819 KA relative to UGCAUGU. Consider B7, for which the binding signal was 0.145 KA relative to UGCAUGU. Take B8: the binding signal was 0.103 KA relative to UGCAUGU.

Regarding B9, the binding signal was 0.0678 KA relative to UGCAUGU.

On to B10, for which the binding signal is 0.0849 KA relative to UGCAUGU. On to B11, for which the binding signal is 0.286 KA relative to UGCAUGU. Next, B12: 0.0801 KA relative to UGCAUGU; B13: 0.101 KA relative to UGCAUGU.

For B14, the binding signal is 0.127 KA relative to UGCAUGU.

Consider B15, for which the binding signal was 0.0684 KA relative to UGCAUGU. As to B16, the binding signal is 0.12 KA relative to UGCAUGU. For B17, the binding signal was 0.0845 KA relative to UGCAUGU. In the case of B18, the binding signal was 0.349 KA relative to UGCAUGU. In the case of B19, the binding signal was 0.0689 KA relative to UGCAUGU. With B20, the binding signal was 0.0805 KA relative to UGCAUGU. For B21, the binding signal was 0.0919 KA relative to UGCAUGU. Next, B22: 0.117 KA relative to UGCAUGU. Turning to B23, the binding signal was 0.351 KA relative to UGCAUGU. For the molecule B24, the binding signal is 0.11 KA relative to UGCAUGU. Turning to B25, the binding signal is 0.0999 KA relative to UGCAUGU.

Turning to B26, the binding signal is 0.136 KA relative to UGCAUGU. Next, B27: 0.0787 KA relative to UGCAUGU; B28: 0.0825 KA relative to UGCAUGU; B29: 0.13 KA relative to UGCAUGU.

As to B30, the binding signal is 0.103 KA relative to UGCAUGU. The value for B31 was 0.053 KA relative to UGCAUGU.
